Hit rate of the full screen: of about 310,000 compounds, about 14,000 (4.5%) showed an effect of 50% or more. The effect is printed as a negative number. Some of the results follow.
Target: human ether-à-go-go-related gene (hERG) potassium channel (human, UniProt Q12809)
Assay: primary screen, population patch clamp on CHO cells stably expressing hERG
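Further: peak tail current of the secondary pulse compared with the same well before compound.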

Sequence of human ether-à-go-go-related gene (hERG) potassium channel (Q12809 whole entry, looked up): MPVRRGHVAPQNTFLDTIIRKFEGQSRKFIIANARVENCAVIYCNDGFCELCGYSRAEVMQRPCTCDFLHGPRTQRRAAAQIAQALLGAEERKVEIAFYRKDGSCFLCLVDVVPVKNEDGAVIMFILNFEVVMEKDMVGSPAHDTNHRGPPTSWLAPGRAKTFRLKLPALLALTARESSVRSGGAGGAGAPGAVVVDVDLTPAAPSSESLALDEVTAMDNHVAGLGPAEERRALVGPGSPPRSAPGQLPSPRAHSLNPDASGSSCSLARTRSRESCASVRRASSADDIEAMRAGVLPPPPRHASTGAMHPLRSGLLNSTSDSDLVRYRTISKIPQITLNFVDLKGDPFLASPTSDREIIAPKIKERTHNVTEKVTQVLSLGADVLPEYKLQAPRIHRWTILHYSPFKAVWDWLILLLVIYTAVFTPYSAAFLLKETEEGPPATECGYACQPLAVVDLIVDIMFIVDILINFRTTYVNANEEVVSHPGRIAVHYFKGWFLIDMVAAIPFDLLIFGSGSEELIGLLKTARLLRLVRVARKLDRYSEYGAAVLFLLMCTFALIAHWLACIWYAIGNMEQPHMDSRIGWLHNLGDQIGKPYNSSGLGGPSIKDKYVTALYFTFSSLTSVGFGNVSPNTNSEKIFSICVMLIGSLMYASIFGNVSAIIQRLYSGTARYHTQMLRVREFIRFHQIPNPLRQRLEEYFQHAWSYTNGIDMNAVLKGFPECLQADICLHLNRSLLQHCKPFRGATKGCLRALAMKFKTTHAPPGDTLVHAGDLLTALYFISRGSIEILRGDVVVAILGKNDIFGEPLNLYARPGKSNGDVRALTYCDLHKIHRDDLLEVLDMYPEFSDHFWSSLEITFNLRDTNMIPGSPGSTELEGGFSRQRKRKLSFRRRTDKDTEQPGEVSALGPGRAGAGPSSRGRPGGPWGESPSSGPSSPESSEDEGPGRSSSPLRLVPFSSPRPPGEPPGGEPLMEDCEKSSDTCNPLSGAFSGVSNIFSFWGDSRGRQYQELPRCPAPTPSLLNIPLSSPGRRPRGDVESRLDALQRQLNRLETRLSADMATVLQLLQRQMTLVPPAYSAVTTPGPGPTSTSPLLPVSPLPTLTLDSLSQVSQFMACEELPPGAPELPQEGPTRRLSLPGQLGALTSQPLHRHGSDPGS

Compared with `O=C(NCC(c1ccco1)N1CCCCC1)c1cccc(S(=O)(=O)Nc2ccccc2Cl)c1` (centres unmarked), `COC(=O)c1cc(CNC(=O)c2ccc(S(=O)(=O)N(C)c3ccccc3)cc2)ccc1OC` is lower in “hERG current change (%, negative = inhibition) at 10uM” value: -2.33% for the first, -13.2% for the second.

Compared with `CCOC(=O)c1c(-c2ccccc2)csc1NC(=O)c1ccc(S(=O)(=O)N2CC(C)OC(C)C2)cc1` (centres unmarked), `CC(=O)Nc1ccc(S(=O)(=O)NCC(=O)OCC(=O)NNC(=O)c2ccccc2)cc1` is higher in “hERG current change (%, negative = inhibition) at 10uM” value: -3.2% for the first, 4.77% for the second.

Going from `CCN(CC)S(=O)(=O)c1ccc(/C=C/C(=O)N(c2ccccn2)C2CCCCC2)cc1` to `O=C(NC1CCCCC1)c1cc(-n2cnnc2)ccc1Cl`, the “hERG current change (%, negative = inhibition) at 10uM” value falls from 21.7% to 5.4%.

Going from `CCC(=O)N1CCN(c2ccc(Cl)cc2NC(=O)c2ccc(Br)o2)CC1` to `CCOC(=O)c1cc(NC(=O)CCC(=O)O)ccc1N1CCCCC1`, the “hERG current change (%, negative = inhibition) at 10uM” value rises from -11.8% to 11.9%.

Going from `O=C1CC(=O)N(Cc2cccs2)C(=O)N1` to `COC(=O)c1c(C)oc(C)c1S(=O)(=O)NCc1cccs1`, the “hERG current change (%, negative = inhibition) at 10uM” value falls from 4.3% to 4.21%.

Compared with `COc1ccc(NC(=S)Nc2cccc(C(C)=O)c2)cc1OC`, `COc1cc(NS(=O)(=O)c2ccc(NC(=S)NC(C)=O)cc2)nc(OC)n1` is higher in “hERG current change (%, negative = inhibition) at 10uM” value: -3.31% for the first, 10.9% for the second.

Compared with `CCn1nc(CC(=O)Nc2nnc(CC(=O)N3CCOCC3)s2)c2ccccc2c1=O`, `Cn1c(SCC(=O)NCc2ccccc2)nnc1C1CC1` is lower in “hERG current change (%, negative = inhibition) at 10uM” value: 17.7% for the first, 12.4% for the second.

First: CCOC(=O)c1c(S(=O)(=O)NCCc2ccco2)c(C)n(C)c1C
Second: CCOC(=O)C1=C(Nc2ccc(Cl)cc2)OCC1=O
The “hERG current change (%, negative = inhibition) at 10uM” value of the first is lower: -1.25% for the first, 6.4% for the second.

Compared with `COc1ccc(N(Cc2cc(=O)[nH]c3ccccc23)C(=O)C(C)C)cc1`, `CC(C)Oc1ccc2c(c1)OC(c1ccccc1)(C(F)(F)F)NC2=O` (centres unmarked) is lower in “hERG current change (%, negative = inhibition) at 10uM” value: 1.44% for the first, -1.44% for the second.

First: COc1ccccc1[C@@H]1C(c2cccc(C)c2)=NN(c2ccccc2)[C@H]1C(=O)N1CCOC1=O
Second: COC(=O)C1=C(C)N(Cc2ccccc2)C(=NCCc2ccccn2)N[C@H]1c1cccc(F)c1
The “hERG current change (%, negative = inhibition) at 10uM” value of the first is higher: 16.5% for the first, -60.4% for the second.

Going from `O=S(=O)(c1ccc(Cl)cc1)N1CCN(C2CCCCCC2)CC1` to `Cc1ccc(S(=O)(=O)N2CCC(C(=O)C3C(=O)CC(C)(C)CC3=O)CC2)cc1`, the “hERG current change (%, negative = inhibition) at 10uM” value rises from -17.3% to 20%.

Compared with `COc1cc(/C=C/C(=O)OCC(=O)NC(=O)NCc2ccccc2)ccc1OCC#N`, `COC(=O)c1cc(C)sc1NC(=O)CCc1ccccc1` is higher in “hERG current change (%, negative = inhibition) at 10uM” value: 1.53% for the first, 5.4% for the second.

First: COc1ccccc1C(C)NC(=O)CN(C)CC(=O)Nc1c(C)cccc1C (centres unmarked)
Second: CC(CNC(=O)c1ccccc1[N+](=O)[O-])NC(=O)c1ccccc1[N+](=O)[O-] (centres unmarked)
The “hERG current change (%, negative = inhibition) at 10uM” value of the first is lower: -11.6% for the first, 1.57% for the second.

Compared with `O=C(c1ccc(F)cc1)N1CCC2(CC1)OCCO2`, `O=C(CN1CCN(c2ccc(F)cc2)CC1)Nc1ccc(S(=O)(=O)N2CCOCC2)cc1` is lower in “hERG current change (%, negative = inhibition) at 10uM” value: 19% for the first, 0.845% for the second.

First: COc1ccc(NC(=O)CSc2ccc3nnc(-c4cccnc4)n3n2)c(OC)c1
Second: CCC(CC)NC(=O)c1oc2ccccc2c1COc1ccccc1
The “hERG current change (%, negative = inhibition) at 10uM” value of the first is lower: -32.4% for the first, -23.4% for the second.

Going from `O=C(NCCC1=CCCCC1)c1cc(-c2ccncc2)nc2ccccc12` to `O=C(Cc1c2ccccc2nc2ccccc12)c1ccccc1`, the “hERG current change (%, negative = inhibition) at 10uM” value rises from 6.78% to 43.2%.

First: O=C(NCCCN1CCOCC1)c1cc2cc(Br)ccc2oc1=O
Second: O=C(CCN1CCN(c2ccccc2)CC1)NNC(=O)c1cccc2ccccc12
The “hERG current change (%, negative = inhibition) at 10uM” value of the first is lower: -17.5% for the first, -11% for the second.

First: O=C(NC1CCCCC1)c1cnn2c(C(F)(F)F)cc(-c3ccco3)nc12
Second: O=C(COC(=O)c1ccccc1NC(=O)c1ccco1)NC1CC1
The “hERG current change (%, negative = inhibition) at 10uM” value of the first is lower: -29.1% for the first, -19% for the second.

Going from `O=C(O)CN(c1ccc(F)cc1)S(=O)(=O)c1ccc2c(c1)OCCO2` to `Cc1cccc(CSC2=NCCN2S(=O)(=O)c2ccc(F)cc2)c1`, the “hERG current change (%, negative = inhibition) at 10uM” value rises from -2.07% to -0.802%.

Going from `Oc1ccc2oc3c(c2c1/C=N/n1cnnc1)CCCC3` to `O=C(O/N=C/C1=C(Cl)c2ccccc2CC1)c1ccc(F)cc1`, the “hERG current change (%, negative = inhibition) at 10uM” value rises from -7.26% to 2.06%.

Compared with `Br.N=C1CCCN1CC(=O)c1ccc(Br)cc1`, `CCOc1ccccc1N1CCN(CC(=O)c2c(N)n(C)c(=O)n(C)c2=O)CC1` is higher in “hERG current change (%, negative = inhibition) at 10uM” value: -15.4% for the first, -3.65% for the second.

First: Cl.NC(CO)C(=O)NNCc1ccc(O)c(O)c1O (centres unmarked)
Second: CNC(=O)NC(=O)C(NC1CCCc2ccccc21)c1ccccc1 (centres unmarked)
The “hERG current change (%, negative = inhibition) at 10uM” value of the first is lower: 14% for the first, 19.5% for the second.

Compared with `CCc1cccc(NC(=O)CCCn2nc(CC)n3c(cc4occc43)c2=O)c1`, `CCn1c(C)nc2cc(C(=O)NNS(=O)(=O)c3c(F)cc(F)c(Cl)c3F)ccc21` is higher in “hERG current change (%, negative = inhibition) at 10uM” value: -38.8% for the first, 0.721% for the second.

First: OCC[C@@H]1C[C@@H](O)[C@H](O)[C@]2(Cc3ccccc3O2)O1
Second: CN(C(=O)CCc1nc2ccccc2s1)c1ccccc1
The “hERG current change (%, negative = inhibition) at 10uM” value of the first is higher: 11.3% for the first, -11.6% for the second.

Compared with `CN(C)/C=C(\C#N)S(=O)(=O)c1ccc(Cl)cc1`, `CCOc1ccc(-c2cn[nH]c2N)cc1` is lower in “hERG current change (%, negative = inhibition) at 10uM” value: 8.4% for the first, -5.03% for the second.

First: COc1ccc(N2CSC3=C(C#N)C(c4cc(OC)c(OC)cc4OC)CC(=O)N3C2)c(OC)c1 (centres unmarked)
Second: COc1ccc(Cc2c3cc(OC)c(OC)cc3cc[n+]2C)cc1OC.[I-]
The “hERG current change (%, negative = inhibition) at 10uM” value of the first is lower: -32.2% for the first, 12.3% for the second.

Compared with `O=C(O)COc1c(F)c(F)c(C(F)(F)F)c(F)c1F`, `Cc1c(CC(=O)NCCCC(=O)O)c(=O)oc2c(C)c3oc4c(c3cc12)CCCC4` is higher in “hERG current change (%, negative = inhibition) at 10uM” value: 7.86% for the first, 13.9% for the second.

Compared with `CN1CCC(OC(=O)C23CCC(C)(C(=O)O2)C3(C)C)CC1` (centres unmarked), `Nc1ccc(OCc2ccccc2)cc1` is lower in “hERG current change (%, negative = inhibition) at 10uM” value: 2.79% for the first, -0.533% for the second.

Source: PMC4336329 (PLoS ONE, 2015)
